Source: the supplement of paper PMC11417369
This is one part of the list.

The sequences below were run on PF3D7_0420300 AP2 domain 1 (GST-tagged) (assay: gcPBM binding intensity (ln(normalized median fluorescence intensity)); higher = stronger DNA binding).
Procedure, shortened: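 Binding of GST-tagged P. falciparum DNA-binding domains, expressed in E. coli and used at about 25 μg on average, was carried out for 1 h in 1× PBS containing 1% milk, 0.2 mg/ml BSA, 0.5% salmon testes DNA and 0.03% Triton X-100. The target was an Agilent 4 × 180k array of primer-extended double-stranded 36-bp intergenic genomic probes plus negative controls, read with Alexa488 anti-GST antibody at 488 nm. Binding intensity is the highest Masliner-normalised natural-log median intensity across replicate spots of either probe orientation.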

Row | Sequence | gcPBM binding intensity (ln)
1 | ATCATTCATTTAACAACACACAACATATTTATCATA [CACACA_site1041] | 9.64
2 | TATATATTATATAAGAGTACATATAATTATAGTTTT [XGTACX_site5039] | 9.11
3 | TTTTTTATATTGTGATGTACAAATTTTAAAATGTAG [XGTACX_site1875] | 8.94
4 | GTGTGGAGTTACAAAGAGGAGAACCTCACAGTAATC [CACACA_negctrl_site527] | 9.18
5 | AAATTCGTTATAAAAACATGCAACGATCAACATTGT [TGCATGCA_site844] | 9.3
6 | TTACTCTTTATATAATGTACATATATATATATATTA [XGTACX_site2624] | 9.31
7 | TTATGTGATAAAAAAAAAATACAACAAAGTTAAATA [GTGCAC_negctrl_site36] | 9.23
8 | ATATATATATATATAATACACACTTATGAAATGTCT [CACACA_site1827] | 9.45
9 | TTACACATATTTTTAATTATTCTGAATTCAAAAAAA [CACACA_negctrl_site1706] | 8.84
10 | GTAATATTAAAATATACACACATAGAATATATATAT [CACACA_site4391] | 9.58
11 | ATAATCATAAAATAAACACACATATATAAATATATT [CACACA_site276] | 9.53
12 | TTTTTGTAAACCTACTTCATAATTATTTATATCTAT [XGTACX_negctrl_site599] | 9.33
13 | CTTTTGTATATTATATGTACACACAATAAGTTAATA [XGTACX_site1684] | 9.44
14 | ACATATATTTATATATGTACATATGATATATACATA [XGTACX_site6122] | 9.12
15 | AATTAACAAAAACACACACACACACCCACAAAAAAA [CACACA_site517] | 10.1
16 | TACATATAAACAATAACACACACCTAGGTACATGGA [CACACA_site8178] | 9.82
17 | AGGCTATAATACCATACACACATTTATAAAATAACA [CACACA_site6990] | 9.61
18 | TAAAAATTTGATCAAACACACGTTGCATAAATTATA [CACACA_site6040] | 9.29
19 | AAGAAAAAAAAAAAAACACACATATATTTATTTATA [CACACA_site7042] | 9.23

Row | Sequence | gcPBM binding intensity (ln)
20 | TATACACATAGACACACACACAAAAAAAAAAAAAAA [CACACA_site6338] | 9.73
21 | GAAAGAAAAAATGATGAATAGAGATCAAATCTATAT [XGTACX_negctrl_site28] | 9.26
22 | TAATTGTACACATGCACACACAAATATTATAGATGT [CACACA_site6528] | 9.8
23 | TTGAGAAAAATTAATGGTACACATATTATAAGTATA [XGTACX_site6539] | 9.19
24 | TGTATAACATTTAGGTGTACAATTATATATAATATA [XGTACX_site8131] | 9.19
25 | TGACATATTATTAGGTGGTCACGTCTCCACGTCAAG [XGTACX_site7943] | 9.11
26 | ATTGTTAAATATAATACACACGTTTTTAAAAATATA [CACACA_site5239] | 9.19
27 | TAAAAATAAATAAATACATGCACCAAAAATAAATTT [TGCATGCA_site801] | 9.57
28 | AAAAAAAAAAAACATACACACACATATATATATATA [CACACA_site8452] | 9.9
29 | ATTGCCATTGTTAATGCATGTAACAATTCAGCTCAT [TGCATGCA_site56] | 9.1
30 | AAAATTATTTAGTAAGTGCAAAAAAAAAAAAAAAAA | 8.78
31 | AATTTGATTATAAATTGTACATATATATATTAAAAG [XGTACX_site5461] | 9.16
32 | TAAATAAAAAGACACACACACATATTTATATTTATA [CACACA_site7135] | 10
33 | ATATTAAAAAGGAAATGTACGTAATGAAGATCAAGT [XGTACX_site3138] | 9.77
34 | TAAATTGGTGCAAAGTGTACATATATATCTTTCCTA [XGTACX_site5458] | 9.22
35 | GAGAAAAATATATACACACACATAAATATATACATA [CACACA_site1895] | 9.92
36 | AAATATCAACTCAAATGTACAAATCACAAAAATGTA [XGTACX_site5344] | 9.31
37 | ATATATGATGTATTTGTGCACATATATATATTATTA [GTGCAC_site9471] | 9.3
38 | AAACGGGAGAAATAAAAATAAAAATAATAAAACAAA [XGTACX_negctrl_site586] | 9.43

Row | Sequence | gcPBM binding intensity (ln)
39 | TATACTCATGGACACACACACATACACAGACATACA [CACACA_site5024] | 9.92
40 | TTCATATATAATTGTACACACAAAAACGACATTGTG [CACACA_site2074] | 9.54
41 | GGAAATAAAATTAAATGTACGAAAACTCATTAAATT [XGTACX_site4274] | 9.22
42 | TAAATATGAGGGAACACACACATGATATATAAATTC [CACACA_site2400] | 9.86
43 | ATTGTTACATAAAATGCACACTTTCAAATATGCTAA [CACACA_site5600] | 9.21
44 | ATATATACCTATATTACACACTTCTTATTCTAAGAA [CACACA_site7421] | 9.24
45 | AGGGTTCATATATTAACACACACATACATATTATAT [CACACA_site8959] | 9.81
46 | TATACACATATATATAGTACATATATAATTTACTAT [XGTACX_site1849] | 9.25
47 | AGTATTCTAATTTTTAAACACACAAATATAAATAAG [CACACA_site9029] | 9.36
48 | TATTTATTAAGACACACACACACACGCACAAAATAA [CACACA_site6254] | 10.2
49 | TGAAATTAAATATATACACACATATATATTTATATG [CACACA_site3516] | 9.3
50 | AAACAAAAGGAAAACATATATATATTAAATGTATAT [CACACA_negctrl_site1663] | 9.44
51 | ATTTAGAATGTTCCTACACACCAAATTTAAGGGTGC [CACACA_site5320] | 9.3
52 | ATTTATATTCCAATATGTACATATTTTCGTATAACC [XGTACX_site8507] | 9.26
53 | TTTTTTTTTCTCCATACACACTTGATAAAACTTTTT [CACACA_site4512] | 9.29
54 | ATTACAAATTCTTTCAGTACATATAAAGAAAAAAAT [XGTACX_site7786] | 9.19
55 | GCAAAATAACAATGTTACACTTATAAAATTGAGGCA [GTGCAC_negctrl_site68] | 9.12
56 | TTAAAAAACATTTGAACATGCAATTGTATATGTAGA [TGCATGCA_site334] | 9.19
